# The list shows a part of the results. Many values rest on one well or one pass, so single values are uncertain.
# Key:
# Experiment in all cases: cell count relative to DMSO control; melanoma cells; higher = more viable cells
# Conditions in all cases: library dose: standard library concentration; 72 h
# G361 = test system: G361
# IPC-298 = test system: IPC-298
# IST-MEL1 = test system: IST-MEL1
# LB2518-MEL = test system: LB2518-MEL
# LOXIMVI = test system: LOXIMVI
# MEL-HO = test system: MEL-HO
# MZ2-MEL = test system: MZ2-MEL
# MeWo = test system: MeWo
# RPMI7951 = test system: RPMI7951
# RVH-421 = test system: RVH-421
# 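Further: cells treated in 1,536-well plates, then fixed and DAPI-stained, with nuclei counted from automated high-throughput microscope images.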
SMILES,cell count (G361) [%],cell count (IPC-298) [%],cell count (IST-MEL1) [%],cell count (LB2518-MEL) [%],cell count (LOXIMVI) [%],cell count (MEL-HO) [%],cell count (MZ2-MEL) [%],cell count (MeWo) [%],cell count (RPMI7951) [%],cell count (RVH-421) [%]
"CN1CCN(c2ccc3nc(-c4c(N)c5c(F)cccc5[nH]c4=O)[nH]c3c2)CC1 [Dovitinib] + Cn1nnc2c(C(N)=O)ncn2c1=O [temozolomide] (first compound 0.5 µM, partner dose 10 µM)",58.3,62.7,52.6,54.6,85.1,57.3,46,54.4,86.1,66
"C=CCNC1=C2C[C@@H](C)C[C@H](OC)[C@H](O)[C@@H](C)/C=C(\C)[C@H](OC(N)=O)[C@@H](OC)/C=C\C=C(/C)C(=O)NC(=CC1=O)C2=O [Tanespimycin] + Oc1nc(-c2ccc(C(F)(F)F)cc2)nc2c1CSCC2 [XAV939] (first compound 0.01 µM, partner dose 10 µM)",69,92.6,84.2,74.1,111,81.5,89.2,71.1,22.1,62.9
"C=CCNC1=C2C[C@@H](C)C[C@H](OC)[C@H](O)[C@@H](C)/C=C(\C)[C@H](OC(N)=O)[C@@H](OC)/C=C\C=C(/C)C(=O)NC(=CC1=O)C2=O [Tanespimycin] + COC(=O)c1sccc1S(=O)(=O)Nc1ccc(Nc2ccccc2)cc1OC [GSK0660] (first compound 0.01 µM, partner dose 5 µM)",93.9,102,106,110,150,116,96.8,81.6,44.3,146
"C=CCNC1=C2C[C@@H](C)C[C@H](OC)[C@H](O)[C@@H](C)/C=C(\C)[C@H](OC(N)=O)[C@@H](OC)/C=C\C=C(/C)C(=O)NC(=CC1=O)C2=O [Tanespimycin] + C#Cc1cccc(Nc2ncnc3cc(OCCOC)c(OCCOC)cc23)c1 [erlotinib] (first compound 0.01 µM, partner dose 4 µM)",44.7,45,74.1,30,120,68.2,57.4,49.4,14.5,61.1
"CS(=O)(=O)CCNCc1ccc(-c2ccc3ncnc(Nc4ccc(OCc5cccc(F)c5)c(Cl)c4)c3c2)o1 [lapatinib] + CN(C)S(=O)(=O)c1ccc2c(c1)/C(=C/c1cc3c([nH]1)CCCC3)C(=O)N2 [SU6656] (first compound 4 µM, partner dose 2 µM)",20.2,62.7,69.3,79.3,77.6,74.6,70.9,71.9,28.5,73.8
"CN1CCN(c2ccc3nc(-c4c(N)c5c(F)cccc5[nH]c4=O)[nH]c3c2)CC1 [Dovitinib] + COc1cc(Nc2ncc(F)c(Nc3ccc4c(n3)NC(=O)C(C)(C)O4)n2)cc(OC)c1OC [Tamatinib] (first compound 0.5 µM, partner dose 2 µM)",46.4,52.4,42.1,60.8,33,58.6,43.5,41.7,48.6,82.3
"C[C@@H](Oc1cc(-c2cnn(C3CCNCC3)c2)cnc1N)c1c(Cl)ccc(F)c1Cl [Crizotinib] + CC1(C)NC(=O)N(c2ccc([N+](=O)[O-])c(C(F)(F)F)c2)C1=O [nilutamide] (first compound 1 µM, partner dose 5 µM)",86.3,93.8,72.9,62,105,89.1,111,71.6,96.8,66.5
"CN1CCN(c2ccc3nc(-c4c(N)c5c(F)cccc5[nH]c4=O)[nH]c3c2)CC1 [Dovitinib] + C=CCNC1=C2C[C@@H](C)C[C@H](OC)[C@H](O)[C@@H](C)/C=C(\C)[C@H](OC(N)=O)[C@@H](OC)/C=C\C=C(/C)C(=O)NC(=CC1=O)C2=O [Tanespimycin] (first compound 0.5 µM, partner dose 0.01 µM)",66.2,69.2,72.7,40.7,125,75.1,48.3,42.2,19,88.1
"CS(=O)(=O)CCNCc1ccc(-c2ccc3ncnc(Nc4ccc(OCc5cccc(F)c5)c(Cl)c4)c3c2)o1 [lapatinib] + OCCn1cc(-c2cnc3nnn(Cc4ccc5ncccc5c4)c3n2)cn1 [PF04217903] (first compound 4 µM, partner dose 5 µM)",69.9,97.6,107,103,77,84.9,82.4,72.3,47.8,96.9
"CS(=O)(=O)CCNCc1ccc(-c2ccc3ncnc(Nc4ccc(OCc5cccc(F)c5)c(Cl)c4)c3c2)o1 [lapatinib] + Cn1cncc1[C@@](N)(c1ccc(Cl)cc1)c1ccc2c(c1)c(-c1cccc(Cl)c1)cc(=O)n2C [tipifarnib] (first compound 4 µM, partner dose 0.05 µM)",70.8,83.5,76.2,60.3,66,82.5,71.3,71.3,37.2,84.3
"CS(=O)(=O)CCNCc1ccc(-c2ccc3ncnc(Nc4ccc(OCc5cccc(F)c5)c(Cl)c4)c3c2)o1 [lapatinib] + CCc1ccc(CCOc2ccc(CC3SC(=O)NC3=O)cc2)nc1 [pioglitazone] (first compound 4 µM, partner dose 10 µM)",79.3,89.2,90.2,118,98.3,73.8,62,73.1,62.3,102
"C[C@@H](Oc1cc(-c2cnn(C3CCNCC3)c2)cnc1N)c1c(Cl)ccc(F)c1Cl [Crizotinib] + CCCS(=O)(=O)Nc1ccc(F)c(C(=O)c2c[nH]c3ncc(Cl)cc23)c1F [PLX4720] (first compound 1 µM, partner dose 0.4 µM)",59.9,81.4,89.1,90.7,142,95.9,81.3,81.6,90.8,64.1
"C[C@@H](Oc1cc(-c2cnn(C3CCNCC3)c2)cnc1N)c1c(Cl)ccc(F)c1Cl [Crizotinib] + CN1CCN(c2ccc3nc(-c4c(N)c5c(F)cccc5[nH]c4=O)[nH]c3c2)CC1 [Dovitinib] (first compound 1 µM, partner dose 0.5 µM)",66.6,67.8,75.8,53,93.1,73.8,44.3,35.2,54.8,89.3
"CS(=O)(=O)CCNCc1ccc(-c2ccc3ncnc(Nc4ccc(OCc5cccc(F)c5)c(Cl)c4)c3c2)o1 [lapatinib] + Cn1cc(/C=C2\C(=O)Nc3cccnc32)c2ccccc21 [GW441756] (first compound 4 µM, partner dose 2 µM)",74,77.6,96.9,103,101,67.7,59.2,73.4,55.6,90
"C[C@@H](Oc1cc(-c2cnn(C3CCNCC3)c2)cnc1N)c1c(Cl)ccc(F)c1Cl [Crizotinib] + CCN(CC)CCCCNc1ncc2cc(-c3cc(OC)cc(OC)c3)c(NC(=O)NC(C)(C)C)nc2n1 [PD173074] (first compound 1 µM, partner dose 0.5 µM)",92,93.4,97.2,76.1,106,90.8,87.8,88.3,111,89.8
"C[C@@H](Oc1cc(-c2cnn(C3CCNCC3)c2)cnc1N)c1c(Cl)ccc(F)c1Cl [Crizotinib] + C[C@]1(c2nc3c(C(N)=O)cccc3[nH]2)CCCN1 [Veliparib] (first compound 1 µM, partner dose 7 µM)",73,108,89.3,74.6,132,84.4,71.7,70.7,103,75.6
"CN1CCN(c2ccc3nc(-c4c(N)c5c(F)cccc5[nH]c4=O)[nH]c3c2)CC1 [Dovitinib] + CO[C@H]1C[C@@H]2CC[C@@H](C)[C@@](O)(O2)C(=O)C(=O)N2CCCC[C@H]2C(=O)O[C@H]([C@H](C)C[C@@H]2CC[C@@H](OCCO)[C@H](OC)C2)CC(=O)[C@H](C)/C=C(\C)[C@@H](O)[C@@H](OC)C(=O)[C@H](C)C[C@H](C)/C=C/C=C/C=C/1C [everolimus] (first compound 0.5 µM, partner dose 0.1 µM)",32.2,53.6,54.6,48.3,106,61,35.5,39.9,70.4,106
"C[C@@H](Oc1cc(-c2cnn(C3CCNCC3)c2)cnc1N)c1c(Cl)ccc(F)c1Cl [Crizotinib] + C=C(c1ccc(C(=O)O)cc1)c1cc2c(cc1C)C(C)(C)CCC2(C)C [Bexarotene] (first compound 1 µM, partner dose 10 µM)",73.1,64,74.6,76.5,106,105,84.3,73.8,93.2,95.7
"C=CCNC1=C2C[C@@H](C)C[C@H](OC)[C@H](O)[C@@H](C)/C=C(\C)[C@H](OC(N)=O)[C@@H](OC)/C=C\C=C(/C)C(=O)NC(=CC1=O)C2=O [Tanespimycin] + Cc1cc(N2CCOCC2)cc2[nH]c(-c3c(NC[C@@H](O)c4cccc(Cl)c4)cc[nH]c3=O)nc12 [BMS536924] (first compound 0.01 µM, partner dose 1 µM)",62.8,101,59.8,67.9,74.7,87.8,124,69.8,21.3,83.6
"CS(=O)(=O)CCNCc1ccc(-c2ccc3ncnc(Nc4ccc(OCc5cccc(F)c5)c(Cl)c4)c3c2)o1 [lapatinib] + Nc1ccn([C@@H]2O[C@H](CO)[C@@H](O)C2(F)F)c(=O)n1 [gemcitabine] (first compound 4 µM, partner dose 0.002 µM)",43,45.7,50.3,53.1,51.9,53.5,55.6,39.2,51.3,6.55

# — the supplement of paper PMC4604168 (melanoma cell lines)
